Test results as given in publication PMC4336329 (PLoS ONE, 2015).
In all, about 310,000 compounds went through this assay and about 14,000 (4.5%) showed an effect of 50% or more. Effects have a minus sign here. The list shows a part of the results.

Molecular target: human ether-à-go-go-related gene (hERG) potassium channel (human, UniProt Q12809)
Assay: primary screen, population patch clamp on CHO cells stably expressing hERG
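Note: peak tail current of the secondary pulse compared with the same well before compound.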

Chain of human ether-à-go-go-related gene (hERG) potassium channel (Q12809 whole entry, looked up): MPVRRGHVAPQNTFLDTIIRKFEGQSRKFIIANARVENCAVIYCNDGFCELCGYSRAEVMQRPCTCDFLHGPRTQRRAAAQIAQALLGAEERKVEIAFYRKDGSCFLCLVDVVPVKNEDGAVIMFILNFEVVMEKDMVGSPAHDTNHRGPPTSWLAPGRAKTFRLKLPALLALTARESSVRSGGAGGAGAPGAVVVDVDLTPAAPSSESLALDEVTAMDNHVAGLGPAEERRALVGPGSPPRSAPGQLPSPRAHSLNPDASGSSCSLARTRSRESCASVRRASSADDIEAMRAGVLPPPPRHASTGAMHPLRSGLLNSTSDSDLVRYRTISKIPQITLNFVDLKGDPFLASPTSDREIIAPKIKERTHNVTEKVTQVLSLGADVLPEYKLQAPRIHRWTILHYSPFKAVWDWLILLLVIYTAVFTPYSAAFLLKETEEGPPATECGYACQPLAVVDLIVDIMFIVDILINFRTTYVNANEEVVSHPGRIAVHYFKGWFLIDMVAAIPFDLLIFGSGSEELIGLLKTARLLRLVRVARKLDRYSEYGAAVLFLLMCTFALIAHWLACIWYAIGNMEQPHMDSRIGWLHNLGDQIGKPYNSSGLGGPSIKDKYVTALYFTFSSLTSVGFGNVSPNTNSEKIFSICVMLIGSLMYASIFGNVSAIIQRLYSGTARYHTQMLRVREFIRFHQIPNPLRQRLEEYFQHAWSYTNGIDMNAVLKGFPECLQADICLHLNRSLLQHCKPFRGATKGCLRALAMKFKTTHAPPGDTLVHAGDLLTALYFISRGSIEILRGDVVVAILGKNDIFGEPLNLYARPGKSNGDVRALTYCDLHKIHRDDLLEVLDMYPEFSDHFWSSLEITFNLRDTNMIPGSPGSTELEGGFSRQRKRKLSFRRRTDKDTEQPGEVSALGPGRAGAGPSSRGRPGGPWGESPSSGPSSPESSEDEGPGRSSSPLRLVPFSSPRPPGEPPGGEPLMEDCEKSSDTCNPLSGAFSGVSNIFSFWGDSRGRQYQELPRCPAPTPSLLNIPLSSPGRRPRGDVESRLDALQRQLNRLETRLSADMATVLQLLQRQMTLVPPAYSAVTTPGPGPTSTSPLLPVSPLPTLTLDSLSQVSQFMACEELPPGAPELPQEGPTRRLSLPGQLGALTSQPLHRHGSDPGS

Row | Compound | hERG current change (%, negative = inhibition) at 10uM
1 | N#CCCn1cc(C(=O)Nc2ccc(F)cc2)c(-c2ccccc2)n1 | -15.2%
2 | O=C(NCCc1ccccn1)C(F)(F)C(F)(F)C(F)(F)C(F)(F)C(F)(F)C(F)(F)C(F)(F)C(F)F | 15.9%
3 | Cc1ccc(NC2=CC(=O)CC(c3ccccc3)C2)cc1 (stereo not shown) | 13.3%
4 | Cn1ccnc1SCC(=O)Nc1ccc2c(c1)OCO2 | 0.703%
5 | O=C(c1ccco1)N1CCN=C1SCc1ccc(F)cc1 | -1.06%
6 | CN(C)c1cccc2c1c(NS(=O)(=O)c1cn(C)cn1)nn2C | 17.3%
7 | CS(=O)(=O)N(C(=O)NC(=O)NC1CCS(=O)(=O)C1)C1CCCCC1 (stereo not shown) | 4.13%
8 | Cc1cc(NC(=O)c2ccc(N3C(=O)CCC3=O)cc2)no1 | 25.5%
9 | O=C(O)CC1(CC(=O)Nc2cc(C(F)(F)F)cc(C(F)(F)F)c2)CCCCC1 | 18.6%
10 | Cc1cc(C)n(CCCN2CCC(C(=O)Nc3cccc(-c4cccc(F)c4)c3)CC2)n1 | -80.4%
11 | O=C(NCCc1c[nH]c2ccccc12)C(=O)NCC1OCCN1S(=O)(=O)c1cc(F)ccc1F (stereo not shown) | -15.6%
12 | Cc1ccc(C(=O)NC(=S)N(C)C2CCCCC2)cc1 | 15.1%
13 | O=C(COC(=O)c1ccc(CO)cc1)c1ccc(S(=O)(=O)N2CCCCC2)cc1 | 13.1%
14 | Cc1cccc(NC(=O)Cc2cccs2)n1 | 6.95%
15 | CC(NC(=O)Cc1ccc(F)cc1)c1ccccc1 (stereo not shown) | -15.6%
16 | COc1cc(C(=O)NCC2CCCO2)ccc1OCc1ccc(Cl)cc1Cl (stereo not shown) | -16.9%
17 | Cc1cccc(C)c1N(CC(=O)Nc1cc(Cl)ccc1Oc1ccccc1)S(C)(=O)=O | 2.06%
18 | Cc1cc(C)c(OCC(=O)Nc2ccccn2)c([N+](=O)[O-])c1 | -2.43%
19 | CCOC(=O)Cn1nc(C)n(-c2ccc(Br)cc2)c1=O | -4.4%
20 | CC(C)c1ccc(NC(=S)NNC(=O)c2cccnc2)cc1 | 16.8%
21 | CS(=O)(=O)N(CC(O)Cn1c2ccccc2c2ccccc21)c1cccc2ccccc12 (stereo not shown) | 0.652%
22 | Cc1ccc(S(=O)(=O)N2CCOCC2)cc1C(=O)OCC(=O)NCc1ccc2c(c1)OCO2 | -44.1%
23 | CCN1CCN(c2ccc([N+](=O)[O-])cc2S(=O)(=O)N2CCOCC2)CC1 | -43.9%
24 | Cc1cnc(C(=O)NNC(=O)c2ccc(Br)cc2)cn1 | -30.2%
25 | Cn1c(CCN2CCCCC2)nc2cc(NC(=O)NC3CCCCC3)ccc21 | 0.766%
26 | COC(=O)[C@]1(S(=O)(=O)c2ccccc2)C[C@@H]2ON=C(c3ccc(OC)cc3)[C@@H]2C1 | 10.8%
27 | COc1cccc(NC(=O)c2cc3ccccc3cc2OC)c1 | 8.02%
28 | COc1ccc(N2C(=O)C3C4C=CC(c5ccccc5)(C3C2=O)C2C(=O)N(c3ccc(OC)cc3)C(=O)C42)cc1 (stereo not shown) | 5.29%

Row | Compound | hERG current change (%, negative = inhibition) at 10uM
29 | CCN(CC)CCc1nc(-c2ccccc2)no1.O=C(O)CC(O)(CC(=O)O)C(=O)O | -10.6%
30 | CC1N=C(c2ccccc2)c2cc(Br)ccc2NC1=O (stereo not shown) | -44%
31 | COC(=O)CC1COc2ccccc2N1C(=O)c1cccc(C(F)(F)F)c1 (stereo not shown) | 17.8%
32 | Cc1ccc(-n2c(C)cc(C(=O)COC(=O)c3ccc[nH]c3=O)c2C)cc1C | -6.9%
33 | CCCCCn1c(Sc2ncccn2)nc2c1c(=O)[nH]c(=O)n2C | -10.5%
34 | CC(=O)N1N=C(c2ccncc2)OC12CCCCC2 | 4.17%
35 | Cc1ccc(S(=O)(=O)c2c[nH]c3cc4c(cc3c2=O)OCO4)cc1 | 8.21%
36 | CCOC(=O)c1ccc(N2CCN(C(C)=O)CC2)c(NC(=O)c2cccnc2)c1 | -9.24%
37 | COc1ccc(N(CC(=O)Nc2cccc(N(C)S(C)(=O)=O)c2)S(=O)(=O)c2ccc(C)cc2)cc1 | 15.8%
38 | O=C(O)c1ccc2c(c1)C(=O)N(Cc1ccc3c(c1)OCO3)C2=O | -5.32%
39 | COc1ccc(N(C(=O)CNC(=O)c2ccco2)C(C(=O)NC2CCCC2)c2ccc(C)o2)cc1 (stereo not shown) | -19.7%
40 | CN(CC(=O)Nc1cccnc1)S(=O)(=O)c1ccc(Br)cc1 | -21.3%
41 | N=c1c2c3c(sc2nc2n1CCCCC2)CCCCC3 | -53%
42 | CCOc1cccc(C(=O)Nc2ccc3oc(Cc4ccc(Cl)cc4)nc3c2)c1 | 6.61%
43 | O=C(NC1CCCC1)C(c1ccccc1)N(C(=O)c1csnn1)C1CCCC1 (stereo not shown) | -10.8%
44 | Cc1cc(NC(=O)C(=O)NCCN2CCN(S(C)(=O)=O)CC2)ccc1Br | -21.3%
45 | COc1ccc(SCC2CN(C)CCC2c2ccc(F)cc2)cc1.Cl (stereo not shown) | -11.8%
46 | COc1ccccc1N1CCN(Cc2ccc3c(c2)OCO3)CC1 | -20.1%
47 | COc1ccc(CNCC(O)(c2ccccc2)c2ccc(F)cc2)cc1OC (stereo not shown) | -61.2%
48 | Cc1ccsc1C1Nc2ccc3ncccc3c2C2=C1C(=O)CCC2 (stereo not shown) | -8.33%
49 | Cc1cc(C(=O)CSc2nnc(-c3ccc(Cl)cc3)n2CC2CCCO2)c(C)n1C (stereo not shown) | -20%
50 | CCS(=O)(=O)CCSc1nc2c(cc1C#N)CCCC2 | -28%
51 | Cn1c(=O)n(C)c2cc(S(=O)(=O)NCCOCCO)ccc21 | 8.53%
52 | COc1ccccc1-c1nnc(SCC(=O)Nc2oc(C)c3c(C)n[nH]c(=O)c23)n1C | 24.7%
53 | C#CCNC(=O)C1=C[C@@H](C2CC2)C[C@@H](OCCCCO)O1 | -14%
54 | CN1CCN(S(=O)(=O)c2ccc(NC(=O)Nc3cccc(Cl)c3)cc2)CC1 | -18.7%
55 | CSc1ccccc1C(=O)Nc1cccc(C(C)O)c1 (stereo not shown) | -2.74%
